“And” between values parts separate entries of the source, which are not always exact repeats. Equal values may be shown once. Out of some 360,000 compounds screened, about 25,000 (6.9%) were called active. Inconclusive results, whose numbers are uncertain, are shown with a selection of clear calls. Calls come from the whole dose curve; as a rule, active = well fitted inhibition curve with a large enough effect; inconclusive = small, poorly fitted or top-dose-only effect; inactive = flat fitted curve, though single readings scatter. Where the call is inconclusive, the potency comes from a doubtful curve fit.
Target: Luciferin 4-monooxygenase (Photinus pyralis) (UniProt P08659)
Assay: qHTS profiling assay for firefly luciferase inhibitor/activator using purifed enzyme and Km concentrations of substrates (counterscreen for miR-21 project); note: nearly all actives have a fitted effect of over 55% in size
Settings: purified FLuc, luminescence inhibition; series mostly up to 57.5 µM
Method in brief: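 Purified P. pyralis luciferase, 10 nM final, with Km-level 10 uM D-luciferin and 10 uM ATP in 50 mM Tris acetate pH 7.5, 10 mM Mg acetate, 0.01% Tween-20, 0.05% BSA; 6-point qHTS titration about 60 µM downward; luminescence read.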
Potency is the fitted concentration of half-maximal effect; tags give direction and shape of the fitted curve.

Sequence of UniProt P08659 (P08659 whole entry, looked up): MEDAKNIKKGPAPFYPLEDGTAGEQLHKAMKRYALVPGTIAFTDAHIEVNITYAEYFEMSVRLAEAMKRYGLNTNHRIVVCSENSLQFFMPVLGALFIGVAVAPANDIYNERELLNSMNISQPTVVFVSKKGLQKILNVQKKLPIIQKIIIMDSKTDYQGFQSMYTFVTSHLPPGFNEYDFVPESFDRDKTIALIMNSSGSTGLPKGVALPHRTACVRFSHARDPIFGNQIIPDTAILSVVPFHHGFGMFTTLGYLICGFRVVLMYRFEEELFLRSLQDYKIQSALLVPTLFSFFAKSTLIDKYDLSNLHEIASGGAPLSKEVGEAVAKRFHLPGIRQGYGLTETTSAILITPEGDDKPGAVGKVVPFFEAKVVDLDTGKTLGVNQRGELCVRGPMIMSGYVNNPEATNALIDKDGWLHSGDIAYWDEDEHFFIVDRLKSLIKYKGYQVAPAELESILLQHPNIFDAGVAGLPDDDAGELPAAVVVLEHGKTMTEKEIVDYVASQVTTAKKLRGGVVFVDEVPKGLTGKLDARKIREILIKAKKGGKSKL

Row | Structure (SMILES) | Potency
1 | Nc1c(S(=O)(=O)c2cccs2)c2nc3ccccc3nc2n1/N=C/c1cccc(O)c1 | inactive
2 | Cc1cc(C)c2c(=O)n(CC(=O)N3CCC(Cc4ccccc4)CC3)sc2n1 | inconclusive: 6.75 µM [inhibitor, full curve]
3 | COc1ccc(NC(=O)CSc2nc(-c3ccc(OC)cc3)cc(=O)[nH]2)cc1 | inconclusive: 0.478 µM [inhibitor, full curve, poor fit]
4 | COc1ccc(-c2cc(C(F)(F)F)n3nc(N)nc3n2)cc1 | inconclusive: 16.9 µM [inhibitor, partial curve]
5 | CC1(C)CC(=O)C(N=Nc2cccc([N+](=O)[O-])c2)=C(O)C1 | active: 10.7 µM
6 | Cc1ccc(CSCc2nnc(SCC(=O)N3CCN(c4ccccc4)CC3)n2C)cc1 | inactive
7 | CN(C)c1ccc(/C=N/NC(=O)CCCCCNC(=O)c2ccccc2)cc1 | inconclusive: 37.9 µM [inhibitor, single point]
8 | Cc1ccc(C(=O)O)cc1NC(=O)CSc1ncnc2sc3c(c12)CCC3 | inactive
9 | CCOc1cccc2cc(C(=O)N3CCN(C/C=C/c4ccccc4)CC3)c(=O)oc12 | inconclusive: 37.9 µM [inhibitor, partial curve, poor fit]
10 | CCc1nn2c(-c3ccco3)ccnc2c1-c1ccccc1 | inconclusive: 10.7 µM [inhibitor, partial curve]
11 | COc1cccc(-c2nnc(NC(=O)c3ccc(Cl)s3)o2)c1 | inconclusive: 16.9 µM [inhibitor, single point]
12 | CC1(C)CC(=O)c2cnc(N3CCc4ccccc43)nc2C1 | active: 2.13 µM
13 | C=CCN(C(=O)CN1CCOCC1)c1nc(C)c(-c2ccccc2)s1 | inconclusive: 37.9 µM [inhibitor, partial curve, poor fit]
14 | CC(=O)N1CCN(S(=O)(=O)c2cccc(C(=O)Nc3ccc4c(c3)CCC4)c2)CC1 | inconclusive: 9.53 µM [inhibitor, partial curve, poor fit]
15 | Cc1cccc(NC(=O)CSc2cn(CC(=O)N3CCCC3)c3ccccc23)c1C | inactive
16 | CC(=O)Nc1ccc(S(=O)(=O)Nc2nc3ccccc3s2)cc1 | inactive
17 | COc1ccc(NC(=O)Oc2cc(C)ccc2C(C)C)cc1 | inconclusive: 30.1 µM [inhibitor, partial curve, poor fit]
18 | O=C(NNC(=O)C1[C@H]2CCCC[C@@H]12)Nc1cccc2ccccc12 (stereo not given in full) | inactive
19 | COc1ccc(-c2cc3ccccc3oc2=O)cc1NC(=S)NC(=O)c1ccc2c(c1)OCCO2 | inconclusive: 30.1 µM [inhibitor, partial curve, poor fit]
20 | COc1ccccc1Cn1c(CNS(=O)(=O)c2ccc(CC(C)C)cc2)nc2cccnc21 | inconclusive: 21.3 µM [inhibitor, partial curve, poor fit]

Row | Structure (SMILES) | Potency
21 | Cc1sc2c(c1C)CN(CCN1CCOCC1)CN2C(=O)c1ccccc1 | inconclusive: 37.9 µM [inhibitor, partial curve, poor fit]
22 | COc1cc(C(=O)NCC(=O)N/N=C/c2ccc(OC(=O)c3ccco3)cc2)cc(OC)c1OC | inconclusive: 21.3 µM [inhibitor, single point]
23 | COc1ccccc1NC(CC(=O)c1ccccc1)C(=O)OCC(=O)c1ccc(F)cc1 (stereo not given) | active: 1.69 µM
24 | O=C(NC1CCCC1)C(=O)c1c[nH]c2ccccc12 | inconclusive: 23.9 µM [inhibitor, single point]
25 | COc1cccc2cc(C(=O)Nc3ccc(F)cc3)c(=Nc3ccc(C(=O)O)cc3)oc12 | inconclusive: 19 µM [inhibitor, partial curve]
26 | COc1cc(SC)ccc1C(=O)Nc1cccc(S(=O)(=O)NC2=NCCCCC2)c1 | inconclusive: 16.9 µM [inhibitor, partial curve]
27 | O=C(CNC(=O)c1ccc(Cl)cc1Cl)OCc1nc2ccccc2s1 | inconclusive: 37.9 µM [inhibitor, single point]
28 | COc1cccc(C(=O)Nc2cc(-c3ccccc3)nn2-c2ccccc2)c1 | inconclusive: 26.9 µM [inhibitor, partial curve, poor fit]
29 | CCN(CC)C(=O)c1sc(NC(=O)c2ccc3c(c2)OCO3)c(C(N)=O)c1C | active: 19 µM
30 | O=C(Nc1ccc2c(c1)CCC2)c1cnc(Cl)c(Cl)c1 | active: 3.01 µM
31 | COc1ccc(/C=N/N=C2\SC(CC(=O)O)C(=O)N2c2ccccc2)c(OC)c1 (stereo not given) | inconclusive: 37.9 µM [inhibitor, partial curve, poor fit]
32 | Cc1ccc(C(=O)Oc2ccc(C(=S)N3CCOCC3)cc2)cc1 | inconclusive: 15.1 µM [inhibitor, partial curve]
33 | O=C(NNC(=O)C1C2C=CC(C2)C1C(=O)O)c1ccccc1O (stereo not given) | inconclusive: 37.9 µM [inhibitor, partial curve, poor fit]
34 | COc1ccc(NC(=O)CN(C)C(=O)c2ccc(NS(=O)(=O)c3ccc(F)cc3)cc2)cc1 | inconclusive: 33.8 µM [inhibitor, single point]
35 | N#Cc1ccc(OCC(=O)N/N=C2\CCc3ccccc32)cc1 | inconclusive: 37.9 µM [inhibitor, partial curve, poor fit]
36 | Oc1ccc(O)c(Cc2nc3ccccc3s2)c1 | inconclusive: 23.9 µM [inhibitor, partial curve, poor fit]
37 | COc1ccc(-c2nnc(SCC(=O)N3CCCCC3)o2)cc1 | inconclusive: 37.9 µM [inhibitor, single point] and inconclusive: 33.8 µM [inhibitor, single point]
38 | CCn1c(SCC(=O)c2ccc(C)cc2)nnc1-c1ccoc1C | inconclusive: 15.1 µM [inhibitor, partial curve]
39 | CC1CCN(C(=O)CN2c3ccc(Br)cc3-c3ccccc3S2(=O)=O)CC1 | inconclusive: 37.9 µM [inhibitor, partial curve, poor fit]
40 | CN(C)c1ccc(NC(=O)c2cccc(C(=O)Nc3ccc(N(C)C)cc3)n2)cc1 | active: 1.51 µM
